Results on 33 variants are retold here after the GPR68 mutational scans of Howard et al. (2025).

The least precise scores are not listed. Two further conditions of the source, in which the scores hardly spread, are not listed. Names with del lack the residues named; names with ins carry added residues between the positions named. For some assays here: The concentration of ogerin is not given here.

B1: GPR68, Q15743 (parent)
chain: MGNITADNSSMSCTIDHTIHQTLAPVVYVTVLVVGFPANCLSLYFGYLQIKARNELGVYLCNLTVADLFYICSLPFWLQYVLQHDNWSHGDLSCQVCGILLYENIYISVGFLCCISVDRYLAVAHPFRFHQFRTLKAAVGVSVVIWAKELLTSIYFLMHEEVIEDENQHRVCFEHYPIQAWQRAINYYRFLVGFLFPICLLLASYQGILRAVRRSHGTQKSRKDQIQRLVLSTVVIFLACFLPYHVLLLVRSVWEASCDFAKGVFNAYHFSLLLTSFNCVADPVLYCFVSETTHRDLARLRGACLAFLTCSRTGRAREAYPLGAPEASGKSGAQGEEPELLTKLHPAFQTPNSPGSGGFPTGRLA

Data set [1] covers variants of B1. Briefly: cAMP reporter score (Enrich2 score, wild type = 0); higher = more signal; HEK293T, FACS bins.
Variants of B1 are the subject of data set [2]. Kind of data set: surface expression score (Enrich2 score, wild type = 0); higher = more signal; HEK293T, FACS bins.

Turning to E149S, the cAMP reporter score is -1.88 in data set [1] (pH 5.5); -1.61 in data set [1] (pH 6); -0.653 in data set [1] (pH 6, modulator: ogerin); -1.99 in data set [1] (pH 6.5, modulator: ogerin). Besides, the surface expression score in data set [2] was -3.25.
For E149Q, the cAMP reporter score is -0.408 in data set [1] (pH 5.5); -1.49 in data set [1] (pH 6, modulator: ogerin); -2.41 in data set [1] (pH 6.5, modulator: ogerin).
On to E149P, for which the cAMP reporter score was -1.63 in data set [1] (pH 5.5); -1.48 in data set [1] (pH 6, modulator: ogerin); -2.06 in data set [1] (pH 6.5, modulator: ogerin). Moreover, the surface expression score in data set [2] is -2.55.
The like results for E149R were, in that order, 0.86, -1.7, -1.81 and -1.46.
For E149L, the cAMP reporter score was -0.482 in data set [1] (pH 5.5); -0.642 in data set [1] (pH 6, modulator: ogerin); -0.395 in data set [1] (pH 6.5, modulator: ogerin).
As for E149V, the cAMP reporter score in data set [1] (pH 5.5) came out at 1.34; in data set [1] (pH 6) it was 3.65; in data set [1] (pH 6, modulator: ogerin) it was 0.406; in data set [1] (pH 6.5, modulator: ogerin), 0.571. For the same variant, the surface expression score in data set [2] was 1.04.
Turning to E149I, the cAMP reporter score worked out at 0.567 in data set [1] (pH 5.5); 3.73 in data set [1] (pH 6); 0.54 in data set [1] (pH 6, modulator: ogerin). The surface expression score in data set [2] is -0.994.
For the variant E149C, the cAMP reporter score in data set [1] (pH 5.5) is -0.485; in data set [1] (pH 6.5, modulator: ogerin) it was -0.452. The surface expression score in data set [2] is -0.411.
As for E149D, the cAMP reporter score is -0.646 in data set [1] (pH 5.5); -1.63 in data set [1] (pH 6, modulator: ogerin); -1.3 in data set [1] (pH 6.5, modulator: ogerin). For the same variant, the surface expression score in data set [2] is -2.76.
Take E149M: the cAMP reporter score is 3.34 in data set [1] (pH 5.5) and -0.385 in data set [1] (pH 6.5, modulator: ogerin).
E149A: the cAMP reporter score in data set [1] (pH 5.5) is -1.54; in data set [1] (pH 6), 1.57; in data set [1] (pH 6, modulator: ogerin), -0.701. In addition, the surface expression score in data set [2] was -0.427.
Turning to L135_K136insG, the cAMP reporter score in data set [1] (pH 5.5) was -0.657; in data set [1] (pH 6), -1.1; in data set [1] (pH 6, modulator: ogerin), -1.74; in data set [1] (pH 6.5, modulator: ogerin) it was -0.545. Besides, the surface expression score in data set [2] is -2.13.
The like results for V139del were, in that order, -0.875, 0.389, -1.35, -1.32 and -2.51.
The matching figures for S142R: -0.868, -1.26, -1.01, -0.727 and -2.64.
The matching figures for S142P: -1.41, -0.73, -1.6, -0.984 and -2.53.
S142E: the cAMP reporter score is -1.55 in data set [1] (pH 5.5); -1.27 in data set [1] (pH 6); -1.7 in data set [1] (pH 6, modulator: ogerin); -1.07 in data set [1] (pH 6.5, modulator: ogerin). In data set [2], the surface expression score is -2.35.
S142N: the cAMP reporter score in data set [1] (pH 5.5) was -1.15. Moreover, the surface expression score in data set [2] was -2.07.
Regarding S142K, the cAMP reporter score in data set [1] (pH 5.5) is -0.555; in data set [1] (pH 6), -0.668; in data set [1] (pH 6, modulator: ogerin), -1.27; in data set [1] (pH 6.5, modulator: ogerin) it was -0.78. Further, the surface expression score in data set [2] was -3.48.
As for S142W, the cAMP reporter score in data set [1] (pH 5.5) was -1.66. In addition, in data set [2], the surface expression score was -1.72.
As to S142Q, the cAMP reporter score in data set [1] (pH 5.5) was -0.986; in data set [1] (pH 6), -0.938; in data set [1] (pH 6, modulator: ogerin) it was -1.8; in data set [1] (pH 6.5, modulator: ogerin) it was -0.784. Further, in data set [2], the surface expression score was -2.87.
Consider S142H, for which the cAMP reporter score is -1.53 in data set [1] (pH 5.5); -0.222 in data set [1] (pH 6); -0.869 in data set [1] (pH 6, modulator: ogerin); -1.16 in data set [1] (pH 6.5, modulator: ogerin). Also, the surface expression score in data set [2] is -3.31.
As to S142Y, the cAMP reporter score in data set [1] (pH 5.5) is -0.823; in data set [1] (pH 6) it was -1.58; in data set [1] (pH 6, modulator: ogerin), -2.32; in data set [1] (pH 6.5, modulator: ogerin), -0.993. For the same variant, the surface expression score in data set [2] was -2.48.
With S142I, the cAMP reporter score in data set [1] (pH 5.5) is -1.79; in data set [1] (pH 6), 0.031; in data set [1] (pH 6, modulator: ogerin), -1.63; in data set [1] (pH 6.5, modulator: ogerin), -0.96.
For the variant S142C, the cAMP reporter score in data set [1] (pH 5.5) was -0.766; in data set [1] (pH 6) it was -1.01; in data set [1] (pH 6, modulator: ogerin) it was -0.43; in data set [1] (pH 6.5, modulator: ogerin), -1.59. Moreover, the surface expression score in data set [2] is -1.51.
The matching figures for S142M: -0.405, -0.971, -0.683, -1.73 and -1.71.
Take S142L: the cAMP reporter score was -0.945 in data set [1] (pH 5.5); -1.06 in data set [1] (pH 6); -1.75 in data set [1] (pH 6, modulator: ogerin); -0.842 in data set [1] (pH 6.5, modulator: ogerin). The surface expression score in data set [2] was -3.34.
As to S142T, the cAMP reporter score in data set [1] (pH 5.5) is -0.233; in data set [1] (pH 6), -0.687; in data set [1] (pH 6, modulator: ogerin) it was -1.2; in data set [1] (pH 6.5, modulator: ogerin), -1.2. The surface expression score in data set [2] is -1.67.
As to S142A, the cAMP reporter score in data set [1] (pH 5.5) is -1.43; in data set [1] (pH 6), -1.54; in data set [1] (pH 6, modulator: ogerin) it was -1.64; in data set [1] (pH 6.5, modulator: ogerin) it was -1.23. The surface expression score in data set [2] was -1.46.
The matching figures for S142G: -0.769, -0.23, -0.778, -0.769 and -0.77.
Regarding S142F, the cAMP reporter score in data set [1] (pH 5.5) is -0.409; in data set [1] (pH 6) it was -0.058; in data set [1] (pH 6, modulator: ogerin), -0.652; in data set [1] (pH 6.5, modulator: ogerin), -0.426.
With S142D, the cAMP reporter score was -1.8 in data set [1] (pH 5.5); -0.958 in data set [1] (pH 6); -1.31 in data set [1] (pH 6, modulator: ogerin); -0.541 in data set [1] (pH 6.5, modulator: ogerin). Further, the surface expression score in data set [2] is -2.92.
S142V: the cAMP reporter score in data set [1] (pH 5.5) is -0.985; in data set [1] (pH 6) it was -0.977; in data set [1] (pH 6, modulator: ogerin) it was -1.97; in data set [1] (pH 6.5, modulator: ogerin), -1.7. Moreover, the surface expression score in data set [2] was -2.87.
Take L135V: the cAMP reporter score in data set [1] (pH 5.5) worked out at 1.75; in data set [1] (pH 6) it was 2.41; in data set [1] (pH 6, modulator: ogerin), 0.936; in data set [1] (pH 6.5, modulator: ogerin), 1.33. Further, the surface expression score in data set [2] was determined as 0.791.
